According to publication PMC9334361:
Results are given in words; binding and its absence hold for the method and conditions named. For part of these data: In cells and extracts the contact can be indirect. Some results given as binding are weak or reduced against the parent protein; the word gives no strength. For part of these data: Tags and fused reporters may be left off the sequences shown.

By UniProt entry, the sequences of proteins in these tests, tags left out. Where a name states a change or a piece, a line headed by the entry shows the natural chain unless it says otherwise. Chains listed by the source or under a name are the forms on record and can include a tag or linker. Residues count along the entry.
UniProt Q9Y508: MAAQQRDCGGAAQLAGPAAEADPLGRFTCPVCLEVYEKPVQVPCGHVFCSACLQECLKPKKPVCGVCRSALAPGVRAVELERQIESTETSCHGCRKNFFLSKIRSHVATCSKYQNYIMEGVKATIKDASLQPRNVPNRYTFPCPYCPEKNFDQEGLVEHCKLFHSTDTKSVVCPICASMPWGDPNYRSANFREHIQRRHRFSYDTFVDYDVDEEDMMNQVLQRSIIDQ
ZNF313 RING mutant (RING-MT) (Q9Y508, form named): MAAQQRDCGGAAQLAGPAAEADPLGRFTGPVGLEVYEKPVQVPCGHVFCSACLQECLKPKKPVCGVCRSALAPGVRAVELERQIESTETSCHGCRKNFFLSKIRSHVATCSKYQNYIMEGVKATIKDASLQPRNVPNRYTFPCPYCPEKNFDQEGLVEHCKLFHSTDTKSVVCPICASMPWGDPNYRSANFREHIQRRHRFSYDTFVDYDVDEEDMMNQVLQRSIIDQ
UniProt P11021, residues 19-654: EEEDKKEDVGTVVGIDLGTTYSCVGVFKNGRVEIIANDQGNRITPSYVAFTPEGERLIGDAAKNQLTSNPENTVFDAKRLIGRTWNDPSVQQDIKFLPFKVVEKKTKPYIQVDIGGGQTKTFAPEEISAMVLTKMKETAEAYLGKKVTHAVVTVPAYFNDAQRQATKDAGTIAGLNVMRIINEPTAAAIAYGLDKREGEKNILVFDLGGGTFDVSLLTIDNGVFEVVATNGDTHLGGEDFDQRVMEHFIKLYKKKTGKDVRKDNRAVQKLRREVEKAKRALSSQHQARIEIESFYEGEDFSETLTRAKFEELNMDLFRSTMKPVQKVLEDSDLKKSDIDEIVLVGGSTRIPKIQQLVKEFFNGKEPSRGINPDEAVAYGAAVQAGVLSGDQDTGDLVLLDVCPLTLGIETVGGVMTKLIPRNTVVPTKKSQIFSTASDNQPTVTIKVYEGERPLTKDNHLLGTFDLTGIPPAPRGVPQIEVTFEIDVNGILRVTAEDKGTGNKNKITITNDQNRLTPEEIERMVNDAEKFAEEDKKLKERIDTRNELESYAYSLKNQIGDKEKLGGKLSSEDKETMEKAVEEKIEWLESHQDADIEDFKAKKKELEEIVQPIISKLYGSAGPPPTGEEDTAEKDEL

Experiments:
[1] = target: zinc finger protein 313 (ZNF313), in cells (UniProt Q9Y508); experiment: co-IP; IP assays of ZNF313 and GRP78 from cells; also with increasing XAF1 transfection (equal amount of ZNF313 input), TG treatment of HT1376 XAF1+/+ and XAF1-/- sublines, HAP1 ZNF313+ and ZNF313- sublines
[2] = target: T1, X-linked inhibitor of apoptosis (XIAP)-associated factor 1 (XAF1), wild type, in cells (UniProt Q6GPH4); experiment: co-IP; IP assays of XAF1 (WT and deletion mutants) and GRP78 from cells (Fig. 3A, B, E-G); details in the supplementary methods
T1 sequence: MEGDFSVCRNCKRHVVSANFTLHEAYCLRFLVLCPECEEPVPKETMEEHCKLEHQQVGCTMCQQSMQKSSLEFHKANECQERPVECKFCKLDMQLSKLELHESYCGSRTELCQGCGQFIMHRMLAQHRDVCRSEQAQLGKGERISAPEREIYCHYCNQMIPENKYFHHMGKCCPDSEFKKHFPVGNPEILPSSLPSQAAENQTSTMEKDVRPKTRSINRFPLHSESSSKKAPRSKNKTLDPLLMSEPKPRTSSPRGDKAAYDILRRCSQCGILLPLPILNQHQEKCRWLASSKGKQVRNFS

[3] = target: ZNF313 RING mutant (RING-MT) (UniProt Q9Y508); experiment: pull-down; Ni-NTA pull-down of WT and mutants of ZNF313, GRP78 detected
ZNF313-His [4] = target: ZNF313-His (UniProt Q9Y508); experiment: as above
GST-XAF1 = target: T2, GST-XAF1 (UniProt Q6GPH4); experiment: pull-down; in vitro GST pull-down; purified GST-XAF1 and recombinant GRP78; both purified
T2 sequence: T1 sequence

ZNF313-His [5] = target: ZNF313-His (UniProt Q9Y508); experiment: pull-down; in vitro pull-down (legend: GST pull-down); purified ZNF313-His and recombinant GRP78 (r-GRP78); both purified

| Substance | binding [1] | binding [2] | binding [3] | binding (ZNF313-His [4]) | binding (GST-XAF1) | binding (ZNF313-His [5]) |
| --- | --- | --- | --- | --- | --- | --- |
| Glucose-regulated protein (GRP78), in cells or lysates (from UniProt P11021 19-654) | binds | binds | no binding | binds | – | – |
| recombinant GRP78 (from UniProt P11021 19-654) | – | – | – | – | binds | binds |
